Measured values taken from the supplement of paper PMC12355420.
Counter-ions that a name gives are not always drawn. This is one part of the list. Cut-off read from the data, not from the text of the source: active = 0.5 or less and inactive = the rest. Most values come without repeats; read them as rough.

System: HeLa VPS33A R498W KI + HA-SDC1-FLAG;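 note: HA-SDC1 level read out by In-Cell Western staining with an anti-HA antibody against the N-terminal tag, screening FDA-approved library drugs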
Experiment: relative GAG core protein HA-SDC1 amount per cell number vs DMSO (fraction of DMSO); higher = more SDC1 (GAG core protein)
Details: 50 µM; 24 h

Row | Compound | relative GAG core protein HA-SDC1 amount per cell number
1 | C[S+](CC[C@H](N)C(=O)[O-])C[C@H]1O[C@@H](n2cnc3c(N)ncnc32)[C@H](O)[C@@H]1O (stereo not given in full) [Ademetionine] | inactive: 0.881
2 | O=Cc1ccc(OC2OC(CO)C(O)C(O)C2O)cc1 (stereo not given) [Helicid] | inactive: 0.67
3 | COc1ccc([C@]2(C#N)CC[C@@H](C(=O)O)CC2)cc1OC1CCCC1 [Cilomilast] | inactive: 1.05
4 | Oc1c(Cl)cc(Cl)c(Cl)c1Cc1c(O)c(Cl)cc(Cl)c1Cl [Hexachlorophene] | inactive: 0.518
5 | CCN(CC)C(=O)C1(c2ccccc2)CC1CN (stereo not given) [Milnacipran HCl] | inactive: 0.988
6 | NS(=O)(=O)Cc1noc2ccccc12 [Zonisamide] | inactive: 1
7 | Cn1c(=O)c2[nH]cnc2n(C)c1=O [Aminophylline] | inactive: 1.56
8 | CC(C)(Sc1cc(C(C)(C)C)c(O)c(C(C)(C)C)c1)Sc1cc(C(C)(C)C)c(O)c(C(C)(C)C)c1 [Probucol] | inactive: 1.03
9 | Oc1c(Cl)cc(Cl)c2cccnc12 [Chloroxine] | inactive: 0.644
10 | Nc1ncn([C@H]2C[C@H](O)[C@@H](CO)O2)c(=O)n1 | inactive: 1.04
11 | C[C@@H]1[C@H](O)[C@@H](C)/C=C/C=C/C=C/C=C/C=C/C=C/C=C/[C@H](O[C@@H]2O[C@H](C)[C@@H](O)[C@H](N)[C@@H]2O)C[C@@H]2O[C@](O)(C[C@@H](O)C[C@@H](O)[C@H](O)CC[C@@H](O)C[C@@H](O)CC(=O)O[C@H]1C)C[C@H](O)[C@H]2C(=O)O [Amphotericin B] | inactive: 0.724
12 | CCCCCCOC(=O)NC(=N)c1ccc(NCc2nc3cc(C(=O)N(CCC(=O)OCC)c4ccccn4)ccc3n2C)cc1 [Dabigatran etexilate mesylate] | active: 0.473
13 | CN1CCN(c2nc(C3=C(c4c[nH]c5ccccc45)C(=O)NC3=O)c3ccccc3n2)CC1 [Sotrastaurin (AEB071)] | inactive: 0.783
14 | O=C(O)c1ccc(C(=O)O)cc1 [Terephthalic acid] | inactive: 0.813
15 | CNC[C@@H](O)c1ccc(O)c(O)c1 [L-Adrenaline] | inactive: 0.83
16 | CCOC(=O)O[C@]1(C(=O)OCCl)CC[C@H]2[C@@H]3CCC4=CC(=O)C=C[C@]4(C)[C@H]3[C@@H](O)C[C@@]21C [Loteprednol etabonate] | inactive: 1.09
17 | CC(C)CC(N)=O [Isovaleramide] | inactive: 1.06
18 | CC(=O)NS(=O)(=O)c1ccc(N)cc1 [Sulfacetamide Sodium] | inactive: 1.61
19 | C[C@]12C=CC(=O)C=C1CC[C@@H]1[C@@H]2C(=O)C[C@@]2(C)[C@H]1CC[C@]2(O)C(=O)CO [Prednisone] | inactive: 0.789
20 | CN[C@@H]1[C@@H](O[C@H]2O[C@H](CO)[C@@H](N)[C@H](O)[C@H]2O)OC2C[C@@H](N)[C@@H](O[C@H]3[C@H](O)[C@@H](O)[C@H](N)C[C@@H]3N)OC2[C@@H]1O (stereo not given in full) [Apramycin Sulfate] | inactive: 1.33
21 | COc1ccccc1OCC(O)COC(N)=O (stereo not given) [Methyocarbamol] | inactive: 1.2
22 | Nc1ccn([C@@H]2O[C@H](CO)[C@@H](O)C2(F)F)c(=O)n1 [Gemcitabine] | inactive: 0.977
23 | CC(=O)O[C@]1(C(C)=O)CC[C@H]2[C@@H]3C[C@H](C)C4=CC(=O)CC[C@]4(C)[C@H]3CC[C@@]21C [Medroxyprogesterone acetate] | inactive: 1.7
24 | C[C@]12CC[C@@H]3c4ccc(O)cc4CC[C@H]3[C@@H]1CC[C@@H]2O [α-Estradiol] | active: 0.473
25 | Cc1cc(C2CCCCC2)n(O)c(=O)c1 [Ciclopirox ethanolamine] | active: 0.31

System: HeLa VPS33A KO + NLuc-VPS33A R498W;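 note: screen of an FDA-approved drug library, NanoLuc luminescence read after lysing the treated cells, taken as a measure of mutant VPS33A protein stability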
Experiment: relative mutant VPS33A R498W amount (NanoLuc luminescence) vs DMSO (fraction of DMSO); HeLa model of a glycosaminoglycan (GAG) storage disease; KI is knock-in and KO knock-out; SDC1 is syndecan 1; higher = higher mutant VPS33A level
Details: 50 µM; 24 h

Row | Compound | relative mutant VPS33A R498W amount
26 | Cc1cc(-n2c(=O)[nH]c(=O)n(C)c2=O)ccc1Oc1ccc(SC(F)(F)F)cc1 [Toltrazuril] | 1.22
27 | C[C@H]1[C@H](C)CC[C@]2(C(=O)O[C@@H]3O[C@H](CO[C@@H]4O[C@H](CO)[C@@H](O[C@@H]5O[C@H](C)[C@H](O)[C@@H](O)[C@H]5O)[C@H](O)[C@H]4O)[C@@H](O)[C@H](O)[C@H]3O)CC[C@]3(C)C(=CC[C@@H]4[C@@]5(C)C[C@@H](O)[C@H](O)[C@@](C)(CO)[C@@H]5CC[C@]43C)[C@H]12 [Asiaticoside] | 1.47
28 | Nc1ccccc1NC(=O)c1ccc(CNc2nccc(-c3cccnc3)n2)cc1 [Mocetinostat (MGCD0103, MG0103)] | 0.717
29 | COC(=O)Nc1nc2cc([S+]([O-])c3ccccc3)ccc2[nH]1 (stereo not given) [Oxfendazole] | 0.465
30 | CCCC(=O)Nc1ncnc2c1ncn2[C@@H]1O[C@@H]2COP(=O)(O)O[C@H]2[C@H]1OC(=O)CCC [Dibutyryl-cAMP, sodium salt] | 1.23
31 | OCc1ccccc1O[C@@H]1O[C@H](CO)[C@@H](O)[C@H](O)[C@H]1O [D-(-)-Salicin] | 1.33
32 | Cc1c(C(=O)Nc2ccc(N3C[C@@H](C)O[C@@H](C)C3)nc2)cccc1-c1ccc(OC(F)(F)F)cc1 [LDE225 (NVP-LDE225,Erismodegib)] | 0.991
33 | Cn1cnc2c(F)c(Nc3ccc(Br)cc3F)c(C(=O)NOCCO)cc21 | 1.19
34 | NC(=O)Cc1cccc(C(=O)c2ccccc2)c1N [Nepafenac] | 1.25
35 | NCC[C@H](O)C(=O)N[C@@H]1C[C@H](N)[C@@H](O[C@H]2O[C@H](CN)[C@@H](O)[C@H](O)[C@H]2O)[C@H](O)[C@H]1O[C@H]1O[C@H](CO)[C@@H](O)[C@H](N)[C@H]1O [Amikacin disulfate] | 1.07
36 | NC(=O)N[C@@H](CCC(=O)O)C(=O)O [N-Carbamyl-L-glutamic acid] | 1.39
37 | CCOCc1nc2c(N)nc3ccccc3c2n1CC(C)(C)O [Resiquimod (R-848)] | 0.79
38 | Cc1nnc(C(C)C)n1C1C[C@H]2CC[C@@H](C1)N2CC[C@H](NC(=O)C1CCC(F)(F)CC1)c1ccccc1 (stereo in doubt) [Maraviroc] | 0.934
39 | Cc1[nH]c(=O)c(C#N)cc1-c1ccc2nccn2c1 [Olprinone Hydrochloride] | 1.46
40 | C[C@H](CCC(=O)O)[C@H]1CC[C@H]2[C@@H]3C[C@H](O)[C@@H]4C[C@H](O)CC[C@]4(C)[C@H]3CC[C@]12C [Hyodeoxycholic acid] | 0.918
41 | C[S+](CC[C@H](N)C(=O)[O-])C[C@H]1O[C@@H](n2cnc3c(N)ncnc32)[C@H](O)[C@@H]1O (stereo not given in full) [Ademetionine] | 1.39
42 | O=Cc1ccc(OC2OC(CO)C(O)C(O)C2O)cc1 (stereo not given) [Helicid] | 1.25
43 | COc1ccc([C@]2(C#N)CC[C@@H](C(=O)O)CC2)cc1OC1CCCC1 [Cilomilast] | 0.889
44 | Oc1c(Cl)cc(Cl)c(Cl)c1Cc1c(O)c(Cl)cc(Cl)c1Cl [Hexachlorophene] | 1.48
45 | CCN(CC)C(=O)C1(c2ccccc2)CC1CN (stereo not given) [Milnacipran HCl] | 1.46

Row | Compound | relative mutant VPS33A R498W amount
46 | NS(=O)(=O)Cc1noc2ccccc12 [Zonisamide] | 1.25
47 | Cn1c(=O)c2[nH]cnc2n(C)c1=O [Aminophylline] | 0.678
48 | CC(C)(Sc1cc(C(C)(C)C)c(O)c(C(C)(C)C)c1)Sc1cc(C(C)(C)C)c(O)c(C(C)(C)C)c1 [Probucol] | 1.18
49 | Oc1c(Cl)cc(Cl)c2cccnc12 [Chloroxine] | 4.7
50 | Nc1ncn([C@H]2C[C@H](O)[C@@H](CO)O2)c(=O)n1 | 1.58
51 | C[C@@H]1[C@H](O)[C@@H](C)/C=C/C=C/C=C/C=C/C=C/C=C/C=C/[C@H](O[C@@H]2O[C@H](C)[C@@H](O)[C@H](N)[C@@H]2O)C[C@@H]2O[C@](O)(C[C@@H](O)C[C@@H](O)[C@H](O)CC[C@@H](O)C[C@@H](O)CC(=O)O[C@H]1C)C[C@H](O)[C@H]2C(=O)O [Amphotericin B] | 0.964
52 | CCCCCCOC(=O)NC(=N)c1ccc(NCc2nc3cc(C(=O)N(CCC(=O)OCC)c4ccccn4)ccc3n2C)cc1 [Dabigatran etexilate mesylate] | 0.242
53 | CN1CCN(c2nc(C3=C(c4c[nH]c5ccccc45)C(=O)NC3=O)c3ccccc3n2)CC1 [Sotrastaurin (AEB071)] | 0.776
54 | O=C(O)c1ccc(C(=O)O)cc1 [Terephthalic acid] | 1.01
55 | CNC[C@@H](O)c1ccc(O)c(O)c1 [L-Adrenaline] | 1.36
56 | CCOC(=O)O[C@]1(C(=O)OCCl)CC[C@H]2[C@@H]3CCC4=CC(=O)C=C[C@]4(C)[C@H]3[C@@H](O)C[C@@]21C [Loteprednol etabonate] | 1.23
57 | CC(C)CC(N)=O [Isovaleramide] | 1.18
58 | CC(=O)NS(=O)(=O)c1ccc(N)cc1 [Sulfacetamide Sodium] | 1.05
59 | C[C@]12C=CC(=O)C=C1CC[C@@H]1[C@@H]2C(=O)C[C@@]2(C)[C@H]1CC[C@]2(O)C(=O)CO [Prednisone] | 1.26
60 | CN[C@@H]1[C@@H](O[C@H]2O[C@H](CO)[C@@H](N)[C@H](O)[C@H]2O)OC2C[C@@H](N)[C@@H](O[C@H]3[C@H](O)[C@@H](O)[C@H](N)C[C@@H]3N)OC2[C@@H]1O (stereo not given in full) [Apramycin Sulfate] | 0.809
61 | COc1ccccc1OCC(O)COC(N)=O (stereo not given) [Methyocarbamol] | 0.976
62 | Nc1ccn([C@@H]2O[C@H](CO)[C@@H](O)C2(F)F)c(=O)n1 [Gemcitabine] | 0.562
63 | CC(=O)O[C@]1(C(C)=O)CC[C@H]2[C@@H]3C[C@H](C)C4=CC(=O)CC[C@]4(C)[C@H]3CC[C@@]21C [Medroxyprogesterone acetate] | 1.44
64 | C[C@]12CC[C@@H]3c4ccc(O)cc4CC[C@H]3[C@@H]1CC[C@@H]2O [α-Estradiol] | 0.818
65 | Cc1cc(C2CCCCC2)n(O)c(=O)c1 [Ciclopirox ethanolamine] | 2.25
